# Test results: article PMC12352619, “Phylogeny-guided discovery of a promiscuous P450 macrocyclase for the production of diverse atropopeptides” (Chemical Science, 2025)
# System: ESKAPE pathogens
# Assay: Disk diffusion antimicrobial assay
# Details: 6 mm paper disks loaded with 5 μL of 2.56 mg/mL in DMSO, 37 °C, 16 h, all ESKAPE pathogens
row,Substance,antimicrobial activity (size of the inhibition zone)
1,"H-WALY-OH (also: sidechain bridge or staple (positions not given here)) [compound 4, scabrirubin CB-4]",None of the compounds showed antimicrobial activity
2,"H-WYIW-OH (also: sidechain bridge or staple (positions not given here)) [compound 1, scabrirubin CB-1]",None of the compounds showed antimicrobial activity
3,"H-WYQWL-OH (also: sidechain bridge or staple (positions not given here)) [compound 3, scabrirubin CB-3]",None of the compounds showed antimicrobial activity
